According to ChEMBL document CHEMBL4888484, “Replenishing the malaria drug discovery pipeline: Screening and hit evaluation of the MMV Hit Generation Library 1 (HGL1) against asexual blood stage Plasmodium falciparum ,using a nano luciferase reporter read-out” (2022):
The whole screen tested about 150,000 compounds, of which about 540 (0.36%) showed an effect of 50% or more. The list shows a part of the results.

system: Plasmodium falciparum; assay: Primary screen in NF54 nanoGlo assay, in single point, at 2uM, 72h; a lower Z score goes with more inhibition; assay type: functional, Erythrocyte; details: timepoint 72 hour

Row | SMILES | % Inhibition [%] | Z score
1 | Cc1cc(=O)[nH]c(NCCn2cnc(-c3ccccc3)c2-c2ccc(C)o2)n1 | 10 | -0.88
2 | Cc1nc(C[C@H]2CNCCO2)n(-c2ccc(Cl)cc2C)n1 | -7 | 1.32
3 | NC(=O)[C@H]1CCCN(Cc2ccc(NCc3ccc(F)cn3)cc2)C1 | -9 | 1.18
4 | CN1CCN(C(=O)c2cc3c(s2)CCCCC3)CC1 | -13 | 1.84
5 | O=C(CCN1CCC2(CCO2)CC1)NCc1cccc(Cl)c1 | -10 | 1.76
6 | Cc1cc(F)ccc1NC(=O)CN1C[C@H]2C[C@H](O)[C@@H](O)C[C@H]2C1 | -7 | 1.3
7 | O=C1NCCCCC1NC(=O)N1CCCC1c1nc2ccccc2s1 (stereo not given) | 6 | -0.75
8 | Cc1nc(C)c2c(=O)n(-c3ccccc3)c(=O)[nH]c2n1 | -12 | 1.61
9 | COc1ccc(Cn2cc([C@H](CC(=O)NCc3ccccc3)c3ccc(Cl)c(C(F)(F)F)c3)c3ccccc32)cc1 | 10 | -1.25
10 | FC(F)(F)Cn1nnnc1CN1CCC=C(c2ccccc2)C1 | -12 | 1.71
11 | Cc1cccc(NC(=O)[C@@H]2CCCN2S(=O)(=O)c2ccc3c(c2)NC(=O)CO3)c1C | 4 | -0.67
12 | CCc1sc(C(=O)NC2(c3ncon3)CCOCC2)cc1C | -16 | 2.22
13 | CCC[C@@H](C(=O)NCCc1ccccn1)n1c(Cc2ccc(Cl)cc2Cl)nc2ccccc21 | -3 | 0.38
14 | CC(C)c1cc(N(C)CC(=O)Nc2nnc(-c3ccco3)o2)n[nH]1 | -2 | 0.27
15 | Nc1ccc(C2CC(=O)NC(=O)C2)cc1 | -8 | 1.57
16 | COc1ccccc1CC(=O)NCc1cc(C2CC2)ncn1 | 14 | -1.82
17 | COc1cc(NC(=O)c2ccoc2)c(OC)cc1NC(=O)c1ccccc1 | -20 | 2.69
18 | Cc1cc(S(=O)(=O)[C@H]2CS(=O)(=O)C[C@@H]2N2CCC3(CC2)OCCO3)ccc1F | -4 | 0.46
19 | COc1nccnc1N(C(C)=O)S(=O)(=O)c1ccc(NC(C)=O)cc1 | 36 | -4.59
20 | NC(=O)Cc1ccc(NC(=O)c2ccc(N3CCCC3)c(F)c2)cc1 | -7 | 0.92
21 | COC[C@]1(O)CCOC2(CCN(C(=O)C3CCCCC3)CC2)C1 | -26 | 3.84
22 | O=C1CCN(C(=O)COc2ccc(-c3ccccc3)cc2Cl)CCN1 | 38 | -4.32
23 | O=C(c1ccco1)N1CC[C@@H]2COCCN(Cc3ccncc3)[C@@H]2C1 | -15 | 1.98
24 | NC(=O)c1ccc(NC(=O)c2cc3c(s2)CCCCCC3)cc1 | 5 | -0.73
25 | FC(F)(F)c1csc(NCc2c[nH]nn2)n1 | -12 | 1.46
26 | Cc1cc(C)nc(Nc2ccc(O)c(C(=O)N3CCC[C@H](F)C3)c2)n1 | 0 | -0.03
27 | COc1ccc(CC(=O)Nc2ccc3ncnc(N4CCCCC4)c3c2)cc1Cl | -16 | 1.53

Row | SMILES | % Inhibition [%] | Z score
28 | COc1ccccc1COc1ccc(-c2noc(-c3ccc(F)cc3)n2)cc1OC | -7 | 0.84
29 | O=C(CN(C[C@H]1CCCO1)C(=O)c1ccc(Cl)cc1)Nc1nc(-c2ccc(Cl)cc2)cn1-c1cccc(Cl)c1 | -1 | 0.18
30 | Cc1ccccc1Cc1nc(CNc2cccc(N3CCOC3=O)c2C)no1 | -11 | 1.56
31 | Cc1ccc(S(=O)(=O)NCc2ccco2)cc1C(=O)N[C@@H](C)c1ccc2c(c1)OCCO2 | 0 | -0.05
32 | Cc1noc(C)c1C(=O)NC[C@H](O)c1ccc(-c2ccco2)cc1 | 0 | 0.01
33 | CC(C)S(=O)(=O)c1cccc(C(=O)Nc2onc3c2CCC3)c1 | 6 | -0.88
34 | O=C(CN1CC[C@@](F)(c2cc(F)cc(F)c2)C1)Nc1cccnn1 | -1 | 0.1
35 | CC(C)Cc1ncc2c(n1)CN(c1ncccc1C(N)=O)C2 | -3 | 0.43
36 | CCS(=O)(=O)N1C[C@@H]2CN(C(=O)c3ccn(C)n3)C[C@]2(c2nc(C)no2)C1 | -11 | 1.42
37 | O=C(Nc1ccc2c(c1)C(=O)NCC2)Nc1ccccc1C(F)(F)F | -7 | 1.09
38 | O=C1C[C@H](NC2CCN(c3ccc4c(c3)CCC4)CC2)CN1Cc1ccccc1 | -7 | 1.5
39 | Cc1cc(C)c2[nH]c(C(=O)N3CCC(c4nnn[nH]4)CC3)c(C)c2c1 | 8 | -1.26
40 | Cc1nc(Nc2ccccc2)nc(Nc2ccccc2)c1NC(=O)c1ccc(F)cc1 | 0 | 0.07
41 | CCc1cc(C(=O)NC[C@H](C)C(=O)O)oc1CC | -2 | 0.46
42 | Cc1ccccc1OC[C@H](O)C(=O)N(Cc1ccncc1)C1CCCCC1 | -8 | 0.98
43 | O=C(CCN1CCCCO1)NC[C@@H]1C[C@@H]2C=C[C@@H]1C21CC1 | 3 | -0.36
44 | CC1CC(NC(=O)OC(C)(C)C)CCN1Cc1cccc2cn[nH]c12 (stereo not given) | 3 | -0.28
45 | Cc1nccn1CCN(C)Cc1nccn1C1CC1 | 3 | -0.33
46 | O=C(c1onc2c1CCCC2)N1C[C@@H]2CC[C@H]1CN(Cc1cscn1)C2 | -11 | 1.11
47 | Nc1nc(CNC(=O)c2cc(-n3cccn3)ccc2Cl)cs1 | -1 | 0.17
48 | COC[C@H](C)n1ccc(NC(=O)N2CCC(c3c[nH]cn3)CC2)n1 | 12 | -1.51
49 | Cn1ccc(NC(=O)CN2CCCn3nc(CO)cc3C2)n1 | -8 | 1.26
50 | O=C(NCc1ccccc1F)c1cn(C2CCCCC2)c(=O)c2nnsc12 | 34 | -3.79
51 | CCCNS(=O)(=O)c1ccc(NC(=O)N2CCNC(=O)[C@@H]2CC)cc1 | 2 | -0.31
52 | O=C(CC1CCCCC1)N(Cc1ccc(F)cc1Cl)Cc1c[nH]c2ccc(F)cc12 | -9 | 1.56
53 | CO[C@H](C(=O)Nc1ccc2c(c1)CCCC(=O)N2)C1CC1 | -6 | 0.85
54 | C[C@@H](c1ccccc1)n1cnnc1C1CCOCC1 | 13 | -2.05

Row | SMILES | % Inhibition [%] | Z score
55 | CO[C@@H](C)c1nsc(N2CCC(c3cc(N)[nH]n3)CC2)n1 | -22 | 3.46
56 | O=C(CN1CCN(c2ccc3c(c2)OCO3)C1=O)NCCc1ccc(F)cc1 | -9 | 1.49
57 | CC(C)[C@H](NC(=O)N1c2ccccc2NC(=O)[C@@H]1C(C)C)C(=O)N[C@@H](Cc1ccccc1)C(=O)O | 6 | -0.78
58 | CC(C)C(=O)N1CCC2(CCCCO2)CC1 | 0 | 0.01
59 | COc1ccc(Cl)cc1C(=O)N1CC[C@H](N2C(=O)CNC2=O)C1 | 0 | 0.08
60 | Cn1c(Cn2nc(C(F)(F)F)ccc2=O)cc(=O)n(C)c1=O | -11 | 1.39
61 | c1csc([C@@H]2CCCCN2Cc2cscn2)n1 | -14 | 1.77
62 | COc1ccc2oc(C(=O)N3CC[C@H](Oc4nccnc4C#N)C3)cc2c1 | -14 | 2.34
63 | Cc1n[nH]c(CNc2nc(C(C)C)ns2)c1C | -5 | 0.79
64 | COc1ccc(S(=O)(=O)Nc2ccc(N3CCCCCCC3)c(C(=O)O)c2)cc1Cl | -7 | 0.64
65 | COc1ccc(CN2CCC(CNC(=O)c3cncnc3)CC2)c(OC)c1OC | -4 | 0.38
66 | CO[C@H]1CN(C2CCN(S(=O)(=O)c3ccccc3)CC2)[C@H]1c1ccncc1 | -11 | 1.41
67 | Cc1nn(C)c(C)c1C(NC(=O)N1C[C@H](O)[C@@H](n2ccnn2)C1)C(F)(F)F (stereo not given in full) | -11 | 1.47
68 | CCc1noc(CNC(CC)(CC)CNC(=O)OC(C)(C)C)n1 | -10 | 1.82
69 | COCc1nc(C(=O)N[C@H]2CCCN(c3cccc(F)c3)C2)co1 | 6 | -0.71
70 | CCCc1cc(C(=O)N2C[C@@H]3NC(=O)CN(C)C(=O)c4ccc(C)c(c4)Oc4cccc(c4)CO[C@H]3C2)n(C)n1 | -1 | 0.13
71 | CC(C)COc1nc(-c2cccc(C(F)(F)F)c2)n(-c2ccc(NC(=O)c3ccc4ccccc4c3)cc2)n1 | 0 | -0.06
72 | CC(C)OC(=O)[C@@H]1CCCN1C(=O)Cc1cc(-c2ccccc2)on1 | -13 | 1.16
73 | COc1ccccc1C(=O)N1CCC2(O)CCCCC2[C@@H]1c1cc(OC)c(OC)c(OC)c1 (stereo not given in full) | 0 | -0.05
74 | O=C(c1cc(-c2ccccc2Cl)nc2ccccc12)N1CCN(C(c2ccccc2)c2ccccc2)CC1 | -11 | 1.53
75 | Cc1csc([C@@H]2CCCN2C(=O)c2ccc(Cl)cn2)n1 | -7 | 1.29
76 | CN(Cc1ccc(N2CCOCC2)cc1)Cn1c(C(F)(F)F)csc1=O | -1 | 0.15
77 | Cc1cnc([C@H](C)NC(=O)N(C)Cc2ccn(C)n2)s1 | -10 | 1.59
78 | Cc1cc2c(cc1C)[C@H](C(=O)Nc1cn(C)c(=O)n(C)c1=O)CO2 | -9 | 1.21
79 | Cc1ccnc(OC[C@H]2CCCN2C)c1 | 1 | -0.25
80 | O=C1NC(c2ccc(-c3ccc(Cl)cc3)o2)C(C(=O)c2ccccc2)C(O)(C(F)(F)F)N1 (stereo not given) | -3 | 0.53
